# Assay results as given in PubChem BioAssay AID662 (National Center for Advancing Translational Sciences (NCATS), 2007).
# “And” between values parts separate entries of the source, which are not always exact repeats. Identical values can stand only once. Hit rate of the full screen: of about 71,000 compounds, about 1,800 (2.5%) were called active. This list was built around the results that the source calls inconclusive (neither active nor inactive); the mix of calls is not that of the screen. Calls follow the shape of the dose curve; as a rule, active = well fitted activation curve with a large enough effect in the signal ratio, with a control signal flat (not every such curve was filed as active); inconclusive = small, poorly fitted or top-dose-only effect, or effect the other way, or a change in a side signal; inactive = flat fitted curve, though single readings scatter; the % refers to the signal ratio. Potencies beside an inconclusive call are fits to weak or partial responses and may not hold up.
# Assay: Cell signaling CRE-BLA (Fsk stim); as to activity change, negative = inhibition: % of control where 0% means no effect
# Conditions: CHO CRE-bla reporter (cAMP response element driving beta-lactamase), forskolin EC10, beta-lactamase ratio
# Procedure, shortened: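 The 460nm/530nm emission ratio after CCF4 loading defined %Activity, from which AC50 values were obtained. CRE-bla CHO cells received compound dilution series together with an EC10 level of NKH 477 for 3 hours at 37 degrees Celsius.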
# [1] = activity change, negative = inhibition: at 38.2 µM (top of the series) unless noted
# Potency is read from the fitted curve at half-maximal effect; tags tell the direction and shape of the fitted curve.
smiles,measurement,setting,value
COc1ccc(C[C@@H]2C(=O)N[C@H](C)C(=O)N(C)[C@@H]3C(=O)N(C)[C@@H](Cc4ccc(O)c(c4)Oc4ccc(cc4)[C@H]3O)C(=O)N[C@@H](C)C(=O)N[C@H](C)C(=O)N2C)cc1,"activity change, negative = inhibition",[1],inconclusive: -11.6% [at 7.6 µM]
CCC(=NCc1ccco1)c1c(O)n(-c2ccccc2)c(=O)[nH]c1=O,Potency,[1],"inconclusive: 10 µM [rising, single point]"
CCN1c2nc3ccccn3c(=O)c2CC2(C(=O)N(C)C(=O)N(C)C2=O)C1C (stereo not given),"activity change, negative = inhibition",[1],inconclusive: 1.85%
O=C(c1cc2nc(-c3ccccc3)cc(-c3ccccc3)n2n1)N1CCC2(CC1)OCCO2,Potency,[1],active: 2.51 µM
NCCc1c[nH]c2ccc(O)cc12,"activity change, negative = inhibition",[1],inconclusive: -14.6% [at 17.1 µM]
CCN1CCN(Cc2ccc(C)cc2C)CC1,"activity change, negative = inhibition",[1],inconclusive: 0.903% [at 7.6 µM]
CCOCCOC(C)=O,"activity change, negative = inhibition",[1],inactive
CN=C=S,"activity change, negative = inhibition",[1],inactive
Cc1nc2cnc(N3CCNCC3)nc2n(C)c1=O,Potency,[1],"inconclusive: 12.6 µM [rising, single point]"
O=c1[nH]c(=O)n(CCC2=CCCCC2)c(O)c1C=NCc1cccnc1,"activity change, negative = inhibition",[1],inconclusive: 21%
Oc1c(Cl)c(Cl)c(Cl)c(Cl)c1Cl,"activity change, negative = inhibition",[1],inconclusive: -28.5%
CC(=NCCC1=CCCCC1)c1c(O)[nH]c(=O)[nH]c1=O,"activity change, negative = inhibition",[1],inconclusive: 14.5%
O=C(Oc1ccc(S(=O)(=O)F)cc1F)c1ccccc1Cl,"activity change, negative = inhibition",[1],inactive: -12.6% [at 7.6 µM]
COc1ccc(OC)c(-n2c(O)c(C=NCc3ccc4c(c3)OCO4)c(=O)[nH]c2=O)c1,"activity change, negative = inhibition",[1],inconclusive: 19.7%
COCCCNC(=O)c1c(NC(=O)c2ccco2)n(Cc2ccccc2)c2nc3ccccc3nc12,Potency,[1],"inconclusive: 12.6 µM [rising, single point]"
COc1ccc2c(c1)[nH]c1c(C)nccc12,Potency,[1],"inconclusive: 3.16 µM [falling, partial curve]"
Cc1nc2nc(C)c(CCC(=O)N3CCC4(CC3)OCCO4)c(C)n2n1,"activity change, negative = inhibition",[1],inconclusive: 12.6%
CCCCn1c(=O)c(C(=O)NCc2ccncc2)c(O)c2ccccc21,"activity change, negative = inhibition",[1],inconclusive: 5.02%
CCCN1CCc2cc(O)cc3c2[C@H]1Cc1ccc(O)c(O)c1-3,"activity change, negative = inhibition",[1],inconclusive: 5.77%
CN(C)C(=O)Nc1ccc(Cl)cc1,"activity change, negative = inhibition",[1],inactive
COc1cc(CCN)ccc1O,"activity change, negative = inhibition",[1],inactive
CCCN(CCC)[C@@H]1CCc2cccc(O)c2C1,"activity change, negative = inhibition",[1],inconclusive: -10.5% and inconclusive: -21%
COc1ccc(OC)c(N2C(=O)NC(=O)C3(Cc4cc(C)ccc4N(C)C3)C2=O)c1 (stereo not given),"activity change, negative = inhibition",[1],inconclusive: 15.4%
CCCN1C[C@H](C)N([C@H](c2ccc(C(=O)N(CC)CC)cc2)c2cccc(OC)c2)C[C@H]1C,"activity change, negative = inhibition",[1],inactive
S=C=Nc1cccc2ccccc12,"activity change, negative = inhibition",[1],inactive
COc1ccc(S(=O)(=O)NC(CC(=O)N2CCC3(CC2)OCCO3)c2ccco2)cc1 (stereo not given),"activity change, negative = inhibition",[1],inconclusive: -9.18%
Clc1ccc([C@@H]2C[C@H]3CC[C@@H]2N3)cn1,Potency,[1],"inconclusive: 31.6 µM [rising, single point]"
COC(=O)C(c1ccccc1)C1CCCCN1 (stereo not given),"activity change, negative = inhibition",[1],inactive
c1cc(C2N3CCCN2CC3)ccn1 (stereo not given),Potency,[1],"inconclusive: 1 µM [rising, single point]"
CN1C2CCC1CC(OC(=O)CCN1CCCC1)C2 (stereo not given),"activity change, negative = inhibition",[1],inconclusive: 12.6%
CC(=NCc1cccnc1)c1c(O)n(C2CCCCC2)c(=O)[nH]c1=O,"activity change, negative = inhibition",[1],inconclusive: 22.8%
CCC(=O)c1cn(Cc2ccccc2C#N)c2ccccc12,"activity change, negative = inhibition",[1],inactive
O=c1c2ccccc2nc(-c2ccco2)n1-c1ccncc1,"activity change, negative = inhibition",[1],inconclusive: 28%
O=[N+]([O-])/C=C/c1ccccc1,Potency,[1],"inconclusive: 7.94 µM [rising, partial curve]"
O=C(c1cc(-c2ccncc2)nc2ccccc12)N1CCC2(CC1)OCCO2,Potency,[1],"inconclusive: 25.1 µM [rising, single point]"
Nc1cc(Cl)cc(Cl)c1,"activity change, negative = inhibition",[1],inactive
O=C(Cc1ccccc1)OCc1ccccc1,"activity change, negative = inhibition",[1],inconclusive: -3.37%
O=C(O)C(Oc1nc(=S)[nH]c(=S)[nH]1)(c1ccc(Cl)cc1)c1ccc(Cl)cc1,"activity change, negative = inhibition",[1],inactive: -4.99% [at 7.6 µM]
CN(C)c1ccc(N(C)C)cc1,"activity change, negative = inhibition",[1],inactive
Cc1cc(-c2ccc(N)c(C)c2)ccc1N,"activity change, negative = inhibition",[1],inactive
CN(C)C(=S)SSC(=S)N(C)C,Potency,[1],"inconclusive: 25.1 µM [falling, single point]"
CN1[C@@H]2CC[C@H]1CC(OC1c3ccccc3CCc3ccccc31)C2 (stereo not given in full),"activity change, negative = inhibition",[1],inactive
Cc1ccnc(-n2c(C)nc3ccccc3c2=O)c1,"activity change, negative = inhibition",[1],inactive
CCCN(CCC)[C@@H]1CCc2c(OC)cccc2[C@@H]1C,"activity change, negative = inhibition",[1],inactive
Cn1nc(-c2ccc(OCC(=O)N3CCN(Cc4ccccc4)CC3)cc2)c2ccccc2c1=O,Potency,[1],active: 0.0158 µM
Cc1cc(OCC(=O)Nc2cc(C)nn2-c2ccccn2)c2c3c(c(=O)oc2c1)CCC3,"activity change, negative = inhibition",[1],inconclusive: 27.6%
COc1cc2c(c(OC)c1OC)-c1ccc(O)c(=O)cc1[C@@H](NC(C)=O)CC2,Potency,[1],"inconclusive: 31.6 µM [rising, single point]"
NC[C@@H](O)CSP(=O)(O)O,"activity change, negative = inhibition",[1],inactive: -4.54% [at 7.6 µM]
Cc1nnc2ccc(-c3cccc(C(F)(F)F)c3)nn12,Potency,[1],"inconclusive: 15.8 µM [rising, partial curve, poor fit]"
CCOC(=O)C(C)Oc1cc(C)cc2oc(=O)c3c(c12)CCCC3 (stereo not given),Potency,[1],"inconclusive: 12.6 µM [rising, partial curve]"
CN(C)C1=C(C#N)C(c2ccccc2)=NP(N(C)C)(N(C)C)=N1,"activity change, negative = inhibition",[1],inactive
O=C1C[C@@H]2OCC=C3CN4CC[C@]56c7ccccc7N1[C@H]5[C@@H]2[C@H]3C[C@@H]46,"activity change, negative = inhibition",[1],inconclusive: -1.53%
c1ccc(P(c2ccccc2)c2ccccc2)cc1,"activity change, negative = inhibition",[1],inactive
C=CCOC(=O)c1ccccc1N,"activity change, negative = inhibition",[1],inactive
Nc1c(C(=O)OC2CCCCC2)c2nc3ccccc3nc2n1CC1CCCO1 (stereo not given),Potency,[1],"inconclusive: 12.6 µM [rising, single point]"
CCC(=NC1CC1)c1c(O)n(C2CCCCC2)c(=O)[nH]c1=O,Potency,[1],active: 10 µM
Nc1c(C(=O)NCCc2ccccc2)c2nc3ccccc3nc2n1CCN1CCOCC1,Potency,[1],"inconclusive: 12.6 µM [rising, partial curve]"
Cn1c(O)c(C=NC2C(=O)C3(C)CCC2C3(C)C)c(=O)n(C)c1=O (stereo not given),"activity change, negative = inhibition",[1],inactive
c1cc2n(c1)-c1c(ccc3c1OCO3)CNC2c1ccc2c(c1)OCO2 (stereo not given),"activity change, negative = inhibition",[1],inconclusive: -15.6%
CN(C)[C@@H]1C(=O)C(C(N)=O)=C(O)[C@]2(O)C(=O)C3=C(O)c4c(O)ccc(Cl)c4[C@](C)(O)[C@H]3C[C@@H]12,"activity change, negative = inhibition",[1],inactive
O=c1[nH]c(N2CCN(Cc3ccc4c(c3)OCO4)CC2)nc2c1CCC2,"activity change, negative = inhibition",[1],inactive
CCCOC(=O)COc1cc(C)cc2oc(=O)c3c(c12)CCC3,Potency,[1],"inconclusive: 0.398 µM [rising, full curve]"
c1ccc2cc3c(cc2c1)-c1cccc2cccc-3c12,Potency,[1],"inconclusive: 1 µM [rising, full curve]"
NC(=O)CSP(=O)(c1ccccc1)c1ccccc1,"activity change, negative = inhibition",[1],inactive
CCCN(CCC)c1c([N+](=O)[O-])cc(C(F)(F)F)cc1[N+](=O)[O-],"activity change, negative = inhibition",[1],inactive
c1ccc(NNc2ccccc2)cc1,"activity change, negative = inhibition",[1],inactive
Cc1ccc(NC(=[OH+])c2cc3ccccc3cc2O)c(C)c1.Cc1ccc(NC(=[OH+])c2cc3ccccc3cc2O)c(C)c1.[Ni],"activity change, negative = inhibition",[1],inactive: 1.71% [at 7.6 µM]
CCCCn1c(O)c(C(CC)=NCCc2ccccc2)c(=O)[nH]c1=O,Potency,[1],active: 10 µM
Cc1c(C(=O)c2ccc3ccccc3c2)c2cccc3c2n1[C@H](CN1CCOCC1)CO3,Potency,[1],"inconclusive: 5.01 µM [falling, full curve]"
CC(C)NC[C@H](O)c1ccc(N)c(C#N)c1,"activity change, negative = inhibition",[1],inconclusive: -11.5%
CN(C)P1(N(C)C)=NC(C(F)(F)F)=NC(C(F)(F)F)=N1,"activity change, negative = inhibition",[1],inactive
CCOC(=O)c1c(C)n(Cc2ccccc2)c2ccc(OCC(O)CN3C(=O)CNC3=O)cc12 (stereo not given),Potency,[1],"inconclusive: 10 µM [rising, partial curve]"
CCCCCCN=C(CC)c1c(O)n(CCCC)c(=O)[nH]c1=O,Potency,[1],active: 10 µM
c1ccc2c(N3CCNCC3)cccc2c1,"activity change, negative = inhibition",[1],inactive
CCOC(=O)c1cn2nc(OP(=S)(OCC)OCC)cc2nc1C,Potency,[1],"inconclusive: 12.6 µM [rising, single point]"
C[C@@]12Cc3cnc(-c4ccccc4)nc3C[C@@H]1CC[C@@H]1[C@H]3CC[C@@](C)(O)[C@]3(C)CC[C@@H]12,"activity change, negative = inhibition",[1],inactive: -0.0581% [at 7.6 µM]
CC(C)COC(=O)c1ccccc1C(=O)OCC(C)C,"activity change, negative = inhibition",[1],inactive
CCCN(CCC)CCc1c[nH]c2ccc(C(N)=O)cc12,"activity change, negative = inhibition",[1],inactive
C=C1[C@@H]2CC[C@H]3[C@@]4(C)C[C@@H](O[C@@H]5O[C@H](CO)[C@H](OS(=O)(=O)O)[C@@H](OS(=O)(=O)O)[C@@H]5OC(=O)CC(C)C)C[C@@H](C(=O)O)[C@H]4CC[C@@]3(C2)[C@H]1O,Potency,[1],"inconclusive: 5.01 µM [rising, single point]"
CN1Cc2ccccc2[C@@H]2c3cccc4[nH]cc(c34)C[C@H]21,Potency,[1],"inconclusive: 15.8 µM [rising, partial curve]"
CC(C)C[C@H](NP(=O)(O)O[C@@H]1O[C@@H](C)[C@@H](O)[C@@H](O)[C@H]1O)C(=O)N[C@@H](Cc1c[nH]c2ccccc12)C(=O)O,"activity change, negative = inhibition",[1],inactive
N[C@@]1(C(=O)O)CC[C@H](C(=O)O)C1,"activity change, negative = inhibition",[1],inconclusive: -11.2%
same,"activity change, negative = inhibition",at 38.2 µM (top of the series),inactive: -5.11% and inactive: -12.8%
ClC=CCl,"activity change, negative = inhibition",[1],inactive
COc1ccc2c3c1O[C@@H]1C(=O)CC[C@@]4(O)[C@@H](C2)N(CC2CC2)CC[C@]314,"activity change, negative = inhibition",[1],inactive
